# According to PubChem BioAssay AID1240 (Sanford-Burnham Center for Chemical Genomics, 2008):
# Among all 50,000 compounds or so, about 800 (1.6%) showed an effect of 50% or more. The list shows a part of the results.
# Molecular target: Bcl-2-like protein 10 (Homo sapiens) (UniProt Q9HD36)
# Assay: Phenotype converters, Bcl-B/TR3 peptide binding displacement, primary biochemical FP (AID 1240);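 note: 0% = Bcl-B with tracer peptide and DMSO and 100% = tracer peptide lacking Bcl-B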
# Settings: GST-Bcl-B / FITC-TR3 peptide fluorescence polarization; stronger effect = higher value; compound at 3.75 mg/L
# Chain of UniProt Q9HD36 (Q9HD36 whole entry, looked up): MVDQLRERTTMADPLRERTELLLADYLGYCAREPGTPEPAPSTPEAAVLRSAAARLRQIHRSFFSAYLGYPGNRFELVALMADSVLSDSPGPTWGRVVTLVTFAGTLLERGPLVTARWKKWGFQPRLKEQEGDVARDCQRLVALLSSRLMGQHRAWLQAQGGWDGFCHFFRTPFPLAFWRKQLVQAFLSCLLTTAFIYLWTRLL
row,Compound,displacement
1,COc1ccc(C2C(C#N)=C(N)SC(N)=C2C#N)c(OC)c1,-34.6%
2,O=C(N/N=C/c1ccc(Cl)cc1)c1ccc(O)cc1,-1.1%
3,COc1ccc(C2CC(c3ccccc3)=Nc3ccccc3S2)cc1OC (stereo not given),-0.2%
4,N#Cc1c(NC(=O)CCN2C(=O)c3ccccc3C2=O)sc2c1CCCC2,16.4%
5,COc1ccc(-c2n[nH]c(=S)n2-c2ccc(C)cc2)cc1,2.2%
6,Cc1c(NC(=O)CN(c2cccc(Cl)c2)S(=O)(=O)c2ccccc2)c(=O)n(-c2ccccc2)n1C,5.1%
7,COc1ccc(Cl)cc1N(CC(=O)NCc1ccco1)S(=O)(=O)c1ccc(C)c([N+](=O)[O-])c1,-13.1%
8,CC(C)(C)OC(=O)N1N=C(c2ccc(Br)cc2)CC1(O)C(F)(F)F (stereo not given),13.6%
9,Cc1ccccc1-c1nc2ccccc2c(=O)n1/N=C/c1c[nH]c2ccccc12,9.6%
10,O=C(Nc1ccccc1Cl)c1cccc(F)c1,-1.5%
11,CCOc1ccc2nc(C)c(C/C=C(/C)Cl)c(Cl)c2c1,-4.2%
12,COc1ccc(C2c3c(n(C)c(=O)n(C)c3=O)N=C3c4ccccc4C(=O)C32)cc1OC (stereo not given),6.4%
13,COc1ccc(C2(CNC(=O)c3cc4ccccc4o3)CCCC2)cc1OC,-17.2%
14,CCOc1ccccc1NC(=O)CN(c1ccc(Cl)cc1)S(C)(=O)=O,-4.1%
15,O=C(/C=C/c1ccccc1OCc1ccccc1)c1ccc(Br)cc1,12.6%
16,CCc1nnc(NC(=O)CC(c2ccccc2)c2ccccc2)s1,-0.3%
17,O=C(Nc1ccc2oc(-c3ccc(F)cc3Cl)nc2c1)c1ccc(Br)o1,14%
18,CCOC(=O)c1cn(CC)c2cc(N(C)CCc3ccc(OC)c(OC)c3)c(F)cc2c1=O,7.3%
19,O=C(Nc1ccc(Cl)cc1)Nc1nnc(/C=C/c2ccccc2Cl)s1,1.3%
20,O=Cc1ccc(OC(=O)c2ccc(I)cc2)cc1,2.3%
21,Cc1ccc(C(O)(CNCc2ccccc2)c2ccc(Br)cc2)cc1 (stereo not given),11.1%
22,Cc1cc(C)c(COCCOCc2c(C)cc(C)c(/C=N/O)c2C)c(C)c1/C=N/O,8.9%
23,CCOC(=O)c1c(NC(=O)c2cccc(OC)c2)sc(C(=O)Nc2ccccc2F)c1C,1.6%
24,CCOCCOCCC(C(=O)O)P(=O)(c1ccccc1)c1ccccc1 (stereo not given),8.9%
25,CC(C)C(=O)Nc1ccc(O)c(-c2nc3cc(Cl)ccc3o2)c1,-13.3%
26,CN(C)c1ccc2c(=O)[nH][nH]c(=O)c2c1,9.3%
27,O=C(O)c1ccc(Oc2ccc(NC(=O)c3cccc(F)c3)cc2)cc1,14.9%
28,O/N=C1/CCCc2c1[nH]c1ccccc21,13.1%
29,Cc1cccc(N=C2NC(=O)/C(=C\c3ccc(Cl)cc3)S2)c1C,8.3%
30,CC(=O)Nc1nc2c(s1)C(=O)NCC(C)(C)C2,7.7%
